The supplement of paper PMC10126150
Values marked as one replicate rest on one cluster of the flow cell; about a third of the high ones do not repeat.
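Note: ATP exposure 15 min at 22 °C before imaging.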

What follows are sequences tested on ATP (assay: switch fluorescence ratio, 500 uM ATP over buffer (Cy3 cluster intensity, sum of 5 cycles each) (fold (ratio)); higher = stronger signal-on switching upon ATP binding; sequences stand for … in TCGTCGGCAGCGTCAGATGTGTATAAGAGACAGTTTTTTTTTTTTTTTTTTTTTTTTT…TC). Details: aptamer strand: ATP DNA aptamer (quencher-CACCTGGGGGAGTATTGCGGAGGAAGG + anchor), 100 nM annealed; ATP concentration: 500 uM; one replicate.
Method in brief: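 Imaging in selection buffer was followed by imaging after 15 min with 500 uM ATP at 22 °C, for Cy3-labelled switching-strand clusters annealed to 100 nM quencher-labelled ATP aptamer on a modified Illumina MiSeq flow-cell. Five of these buffer/ATP cycles ran, separated by NaOH stripping and re-annealing. The fluorescence ratio per cluster is summed target-cycle over summed buffer-cycle Cy3 intensity, averaged per switch-domain sequence; clusters outside 100-1000 RFU were removed.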
CCGGCGCCTT was tested, and the switch fluorescence ratio was 1.12. With CCGGCGCGGT the switch fluorescence ratio was 5.63. In the case of CCGGGACGTT, the switch fluorescence ratio was 1.03. In the case of CCGGGCCAGT, the switch fluorescence ratio was 1.1. CCGGGGCAGG was tested, and the switch fluorescence ratio was 1.16. In the case of CCGGGGGCAC, the switch fluorescence ratio was 1.61. In the case of CCGGGGTACC, the switch fluorescence ratio was 1.85. Sequence CCGGTACAAG has a switch fluorescence ratio of 1.11. Sequence CCGGTACCTT has a switch fluorescence ratio of 1.06. CCGGTCGTAT gave a switch fluorescence ratio of 1.09. CCGGTTCGCG gave a switch fluorescence ratio of 1.04. CCGGTTGTCA was tested, and the switch fluorescence ratio was 1.05. Work on CCGGTTGTGT yielded a switch fluorescence ratio of 0.983. CCGGTTTAGC gave a switch fluorescence ratio of 1.15. Work on CCGGTTTTAC yielded a switch fluorescence ratio of 2.21. Work on CCGGTTTTT yielded a switch fluorescence ratio of 0.985. CCGTACAATG was tested, and the switch fluorescence ratio was 2.92. In the case of CCGTACACGG, the switch fluorescence ratio was 0.951. Work on CCGTAGAACG yielded a switch fluorescence ratio of 1.02. Work on CCGTAGCCGT yielded a switch fluorescence ratio of 1.16. Work on CCGTATGACC yielded a switch fluorescence ratio of 1.13. CCGTATGTAC gave a switch fluorescence ratio of 4.96. CCGTCATATG gave a switch fluorescence ratio of 1.09. In the case of CCGTCCGCGG, the switch fluorescence ratio was 3.38. CCGTCGATTC showed a switch fluorescence ratio of 2.7. CCGTCGCCAA showed a switch fluorescence ratio of 3.02. CCGTCGGATG gave a switch fluorescence ratio of 1.03. In the case of CCGTCGGTGG, the switch fluorescence ratio was 0.985. For CCGTCGTCCT, the switch fluorescence ratio was 1.04. With CCGTCGTCGG the switch fluorescence ratio was 1.02. For CCGTCGTTCT, the switch fluorescence ratio was 1.04. CCGTCTAGAG was tested, and the switch fluorescence ratio was 1.3. Sequence CCGTCTGGGC has a switch fluorescence ratio of 1.03. For CCGTCTGTGT, the switch fluorescence ratio was 1.08. CCGTGAAAGA showed a switch fluorescence ratio of 0.98. For CCGTGCTGGG, the switch fluorescence ratio was 1.09. With CCGTGGACGG the switch fluorescence ratio was 1.03. In the case of CCGTGGAGTG, the switch fluorescence ratio was 0.986. Work on CCGTGGGGCA yielded a switch fluorescence ratio of 1.01. Sequence CCGTGTAATC has a switch fluorescence ratio of 1.35. In the case of CCGTGTACGA, the switch fluorescence ratio was 1.16. Work on CCGTGTATCG yielded a switch fluorescence ratio of 0.992. CCGTGTCATA gave a switch fluorescence ratio of 1.09. For CCGTTGTATG, the switch fluorescence ratio was 1.05. CCGTTGTTGG was tested, and the switch fluorescence ratio was 1.05. In the case of CCGTTTCAAG, the switch fluorescence ratio was 1.04. CCGTTTTATT gave a switch fluorescence ratio of 1.04. CCTAAAGAAA gave a switch fluorescence ratio of 1.38. With CCTAAATTAA the switch fluorescence ratio was 1. For CCTAACTCCC, the switch fluorescence ratio was 2.69. In the case of CCTAAGATGG, the switch fluorescence ratio was 1.08. With CCTAAGCGGG the switch fluorescence ratio was 1.09. CCTAAGTAAG showed a switch fluorescence ratio of 1.1. For CCTAATCCGG, the switch fluorescence ratio was 1.09. CCTAATCTCG showed a switch fluorescence ratio of 1.03. In the case of CCTAATGCAA, the switch fluorescence ratio was 3.04. For CCTAATGCCT, the switch fluorescence ratio was 1.09. With CCTACCTACG the switch fluorescence ratio was 1.6. In the case of CCTACTCGGA, the switch fluorescence ratio was 1.04. Work on CCTAGAACAC yielded a switch fluorescence ratio of 1.14. CCTAGAGATA was tested, and the switch fluorescence ratio was 1.01. Sequence CCTAGATCGC has a switch fluorescence ratio of 1.04. Work on CCTAGCCAT yielded a switch fluorescence ratio of 1.4. Sequence CCTAGCCGAG has a switch fluorescence ratio of 1.01. CCTAGGCAGG gave a switch fluorescence ratio of 1.29. In the case of CCTAGGCGTA, the switch fluorescence ratio was 1.07. For CCTAGTCAAT, the switch fluorescence ratio was 3.97. In the case of CCTAGTGCAG, the switch fluorescence ratio was 1.11. For CCTAGTGTTA, the switch fluorescence ratio was 0.993. CCTAGTTAGA showed a switch fluorescence ratio of 1.02. With CCTAGTTCCT the switch fluorescence ratio was 1.03. CCTATAATC showed a switch fluorescence ratio of 1.02. For CCTATCAGGG, the switch fluorescence ratio was 1.03. For CCTATCCACA, the switch fluorescence ratio was 1.08. CCTATTCCGT gave a switch fluorescence ratio of 1.05. In the case of CCTATTTGGG, the switch fluorescence ratio was 0.983.
